Out of some 150,000 compounds screened, about 540 (0.36%) showed an effect of 50% or more. This is one part of the list.
System: Plasmodium falciparum
Assay: Primary screen in NF54 nanoGlo assay, in single point, at 2uM, 72h; a lower Z score goes with more inhibition
Type: functional, Erythrocyte
Settings: timepoint 72 hour

SMILES | % Inhibition | Z score | % Inhibition (2 µM)
CCCOCC(=O)N1C[C@H](C(F)(F)F)[C@@H](S(=O)(=O)N(C)C)C1 | -2% | 0.29 | –
O=C1NC2(CCOCC2)C(=O)N1Cc1cccc(F)c1 | -5% | 0.55 | –
CC[C@@](C)(CC(=O)O)NC(=O)Cc1cccc(Cl)c1 | 2% | -0.24 | –
CC[C@@H](C(=O)O)n1cc(Br)c(C(F)(F)F)n1 | -19% | 2.23 | –
CC(C)c1ccccc1NC(=O)OCC(F)(F)F | 3% | -0.26 | –
COc1cccc(-c2ccc(N3CCCN(C(=O)CN(C(=O)c4ccccc4C)C(C)C)CC3)nn2)c1 | 14% | -1.43 | –
Cc1ccccc1OC[C@H](O)C(=O)N1CCS(=O)(=O)CC1 | 5% | -0.76 | –
CCN(CC)c1ncc(CN2CC[C@H](NS(C)(=O)=O)C2)s1 | -14% | 1.85 | –
CCC1NC(=O)N(CC(O)Cc2cccc(Cl)c2)C1=O (configuration not stated) | 7% | -1.16 | –
Cc1ccc(Nc2cc(C)nc3nc(-c4cccnc4)nn23)c(C)c1 | -12% | 2.05 | –
O=C(Nc1ncsc1C1CC1)N1C[C@@H]2CS(=O)(=O)C[C@@H]2C1 | -7% | 1.08 | –
c1nc(NCc2ccc3c(c2)OCCO3)c2[nH]cnc2n1 | -3% | 0.5 | –
Cc1cc2c(cc1S(=O)(=O)N1CCC(C(=O)N(Cc3ccco3)C[C@H]3CCCO3)CC1)OCC(=O)N2 | 7% | -0.82 | –
O=C(Nc1cccc(C(F)(F)F)c1)c1cn2c3c(cc(Br)cc3c1=O)CC2 | -6% | 0.77 | –
CCCOc1ccc(CN2C(=O)c3cc(C(C)C)nn3C[C@@]2(C)C(=O)NC2CCCCCCC2)cc1 | 1% | -0.17 | –
COC[C@@]1(CNc2cccc(Br)c2C#N)CCCN1 | -5% | 0.7 | –
O=C(Cc1c[nH]c2ccccc12)Nc1ccccc1C(=O)NC1CC1 | -4% | 0.55 | –
CC(C(=O)Nc1cccc2ccccc12)N1CCC(c2ccccc2)C1 (configuration not stated) | -9% | 1.63 | –
CC(C)N1CCO[C@H](c2noc(C3CCN(c4nc5ccccc5o4)CC3)n2)C1 | -8% | 0.92 | –
COC[C@@H]1CCC[C@@H]1NC(=O)c1cc(Cl)c[nH]c1=O | -10% | 1.85 | –
O=S(=O)(c1ccc2c(c1)CCN2S(=O)(=O)c1ccccc1)N1CCOCC1 | -8% | 1.51 | –

SMILES | % Inhibition | Z score | % Inhibition (2 µM)
CC[C@@H]1Oc2ccc(NC(=O)Cc3ccc(F)cc3)cc2CN(Cc2cccc(OC)c2)C1=O | 7% | -1.21 | –
COCCn1cc2c(n1)[C@@H](NCc1ccccc1)CCC2 | -1% | 0.06 | –
Cc1nc[nH]c1CN1CC[C@@H]2N(Cc3cccs3)CCC[C@@]2(CO)C1 | -14% | 1.66 | –
Cn1c2c(c(=O)n(C)c1=O)[C@H](c1ccccc1)NC(O)=N2 | -12% | 1.91 | –
COc1cccc(OCC2CN(CC(O)COc3ccccc3)CCO2)c1 (configuration not stated) | 6% | -0.87 | –
CC(C)(C)CC(=O)Nc1ccccc1C(N)=O | 35% | -4.55 | –
N#Cc1cccc(NC(=O)c2cn(C[C@H](O)c3ccccc3)nn2)c1 | -16% | 3.11 | –
Cc1nc(-c2csc(S(=O)(=O)N3CCCCC3)c2)sc1C(=O)N1CCCCC1 | -20% | 2.83 | –
Cc1ccc(C(=O)NCC2CCN(Cc3ccccc3F)CC2)cc1-n1nnc2cccnc21 | -9% | 1.69 | –
CCS(=O)(=O)N1CCC2(CC1)C[C@@H](Cc1ccc(C)cc1)CCO2 | -15% | 1.88 | –
Cc1ccc([C@H](CNC(=O)C(C)(C)C)OCCO)cc1 | 6% | -0.85 | –
CC12CCCN1C(=O)N(C1CC(=O)N(c3ccccc3)C1)C2=O (configuration not stated) | -1% | 0.14 | –
FC(F)(F)Cn1nc(COc2ccccc2)nc1C1CCOCC1 | -4% | 0.64 | –
O=C(Nc1ccnn1C1CCN(CCCc2ccccc2)CC1)c1ccccc1 | -6% | 1.1 | –
O=C1CCCN1C[C@H]1CCCN(C(=O)Nc2nncs2)C1 | -6% | 0.84 | –
C[C@H]1CCc2c(cnc3scc[n+]23)C1 | -6% | 0.87 | –
Cc1oc2ncnc(NC(=O)c3ccc(Oc4ccc(C(F)(F)F)cn4)cc3)c2c1C | 6% | -0.89 | –
Cc1cc(C)n2cc(COC(=O)c3c(C)noc3C)nc2n1 | -5% | 0.53 | –
O=C(Nc1ccccc1)N1CCC2(CC1)OCCc1ccsc12 | -13% | 1.46 | –
CCC1(CC)C(NC(=O)c2cncc(O)c2)CC1OC (configuration not stated) | 10% | -1.68 | –
Cn1nnnc1NC/C=C/c1ccccc1 | – | – | -11%

SMILES | % Inhibition | Z score | % Inhibition (2 µM)
Cc1cnc(CN[C@@H](C)c2ncc(C)s2)o1 | 2% | -0.27 | –
Cc1ccc(NC(=O)CS(=O)(=O)Cc2noc(CC(C)C)n2)cc1F | -13% | 1.63 | –
O=C(O)c1cccnc1CN1CCC2(c3ccccc3)C(C1)C2(F)F (configuration not stated) | 7% | -1.33 | –
Cc1ccc(-c2cc3n(n2)CCC(=O)N3CC(=O)NCc2ccccc2)cc1 | 0% | -0.05 | –
CC(C)NC(=O)c1nsc(C(=O)NCc2ccc3c(c2)OCO3)c1N | -17% | 1.64 | –
N#Cc1ccc(N2CCN(CC(=O)Nc3nncs3)CC2)cn1 | -12% | 1.55 | –
Cc1ncsc1CN[C@@H](C)c1cc2n(n1)CCC2 | -13% | 2.48 | –
O=C(Cn1cc(Cl)cn1)N1CC(Cc2ccoc2)C1 | -19% | 2.02 | –
O=S(=O)(N[C@H]1CCN(c2cc(N3CCOCC3)cnn2)C1)c1ccccc1 | -10% | 1.44 | –
Cc1cc(C(=O)Nc2ccc(Cl)c(F)c2N2CCOCC2)[nH]n1 | -6% | 0.79 | –
Cc1ccc(CN2CCC(Oc3ccc(Cl)cc3)(C(=O)O)CC2)s1 | 0% | 0.03 | –
Cc1noc(C)c1S(=O)(=O)N(C)C1CCCC(C)C1 (configuration not stated) | -47% | 5.53 | –
C[C@H]1c2ccsc2CCN1C(=O)c1cc(C(=O)O)ccn1 | 0% | -0.03 | –
O=C1N(C2CCCCC2)C[C@H]2CN(Cc3ccc(C(F)(F)F)cc3)CCN12 | 14% | -2.27 | –
CC[C@H](C)c1ccc(O)c(NC(=O)COc2ccc(C)cc2-n2cnnc2)c1 | -4% | 0.49 | –
Cc1ccc(N(C)S(=O)(=O)c2cc(N(C)S(=O)(=O)c3ccccc3)c(C)cc2C)cc1 | -2% | 0.22 | –
Cc1ccc(CN2CCN(Cc3cccc(O)c3)[C@H]3CS(=O)(=O)C[C@H]32)o1 | -7% | 0.91 | –
CNC(=O)NC(=O)C(C)N1C[C@H]2CCCC[C@@]2(C(=O)OC)C1 (some centres not stated) | -10% | 1.03 | –
Cc1cccc(NC(=O)c2nc3c(=O)n(Cc4ccccc4C)c4cc(C)ccc4n3n2)c1 | 3% | -0.35 | –
COc1ccc(-c2nc3cc(C)ccc3cc2CN2CCC[C@H]2C(N)=O)cc1OC | -6% | 0.74 | –
Cn1c2c(c(=O)n3ncc(C(=O)N4CCN(C5CCCCC5)CC4)c13)CN(Cc1ccccc1)CC2 | -2% | 0.32 | –

SMILES | % Inhibition | Z score | % Inhibition (2 µM)
O=C(OCC(=O)N1CCC(Cc2ccccc2)CC1)c1ccncc1 | -9% | 1.08 | –
CCOC(=O)c1cnn(-c2nc3ccccc3s2)c1CN1CCC(O)(c2ccc(Cl)cc2)CC1 | -11% | 1.27 | –
COc1cccc(C(=O)N2CCN(C(=O)c3ccc(-n4nc(C)cc4C)cc3)CC2)c1 | -8% | 0.8 | –
CC[C@H](C)Cc1n[nH]c(-c2cnc(C)[nH]c2=O)n1 | -3% | 0.63 | –
C[N+]1(C[C@@H](C(=O)c2ccccc2)c2ccccc2)CCCCCC1 | -14% | 1.23 | –
O=C(NCC[C@H]1CCCO1)[C@H]1CC[C@H](Nc2cnccn2)CC1 | -8% | 1.57 | –
Cc1ccc(C(=O)N2CCN(CC3CC3)[C@@H]3CS(=O)(=O)C[C@@H]32)c(C)c1 | -8% | 1.11 | –
COCCn1ccc2ccn(Cc3nc(C4CCCCC4)no3)c(=O)c21 | -23% | 1.99 | –
Cc1cc(-c2ccc(F)cc2Cl)c(=O)[nH]n1 | -19% | 2.08 | –
CN1CCOc2ccc(NC(=O)N[C@H]3CCCC3(C)C)cc21 | -2% | 0.19 | –
CCc1ccc(C(=O)N[C@H]2CCCN(CC)C2)[nH]1 | -10% | 1.71 | –
Clc1snnc1CN1CCN(Cc2ccccc2)CC1 | 1% | -0.1 | –
COc1ccc(NCc2nnc3n2CCCCC3)cc1Cl | -45% | 5.28 | –
CCc1nnsc1C(=O)Nc1cnccc1-n1ccnc1 | -9% | 1.25 | –
Cn1nnc2c(=O)n(CC(=O)N3CCC(Cc4ccccc4)CC3)cnc21 | -4% | 0.59 | –
Cc1c(C(=O)NCC(C)(CO)CO)nnn1CC1CCCC1 | -9% | 1.13 | –
COc1ncccc1NC(=O)c1cc(-c2ccc3c(c2)OCCO3)nc2c1cnn2C(C)C | -7% | 0.89 | –
CCn1ccc(C(=O)N2CC[C@H](Cc3nncn3CC)C2)n1 | -8% | 1.31 | –
Cc1cc(C(=O)N2CCC(C(N)=O)CC2)sc1-c1ccccc1 | -13% | 1.69 | –
COc1c(C(=O)Nc2ccccc2)oc2ccc(NC(=O)Cc3cccc(Cl)c3)cc12 | 1% | -0.14 | –
C[C@@H](CNC(=O)N1CCC1)CN(C)C(=O)OC(C)(C)C | -11% | 1.43 | –

From ChEMBL document CHEMBL4888484, “Replenishing the malaria drug discovery pipeline: Screening and hit evaluation of the MMV Hit Generation Library 1 (HGL1) against asexual blood stage Plasmodium falciparum ,using a nano luciferase reporter read-out” (2022)
